We go through two molecules from patent US10590397B2 (priority 2017, dated 2020).

The conditions of this series: expressed in E. coli.

Residue numbers refer to the chain shown, from its start. In names and notes the source's numbering stands.

B1: Os79 H122A/L123G (protein, listed as Oryza sativa)
chain: MGSMSTPAASANGGQVLLLPFPAAQGHTNPMLQFGRRLAYHGLRPTLVTTRYVLSTTPPPGDPFRVAAISDGFDDASGMAALPDPGEYLRTLEAHGARTLAELLLSEARAGRPARVLVYDPAGPWARRVARAAGVATAAFLSQPCAVDLIYGEVCARRLALPVTPTDARGLYARGVLGVELGPDDVPPFVAAPELTPAFCEQSIEQFAGLEDDDDVLVNSFSDLEPKEAAYMESTWRAKTIGPSLPSFYLDDGRLRSNTAYGFNLFRSTVPCMEWLDKQPPRSVVLVSYGTVSTFDVAKLEELGNGLCNSGKPFLWVVRSNEEHKLSVQLRKKCEKRGLIVPFCPQLEVLAHKATGCFLSHCGWNSTLEAIVNGVPLVAMPHWADQPTISKYVESLWGMGVRVQLDKSGILQREEVERCIREVMDGDRKEDYRRNATRLMKKAKESMQEGGSSDKNIAEFAAKYSN
Turning to B1, the “solubility of the protein” value is recorded as “largely insoluble”.

B2: Os79 H122A/L123A (protein, listed as Oryza sativa)
chain: B1 chain with G123A
Regarding B2, the “solubility of the protein” value is recorded as “improved the solubility”.
